From PubChem BioAssay AID504832 (National Center for Advancing Translational Sciences (NCATS), 2011)
The whole screen tested about 310,000 compounds, of which about 18,000 (5.8%) were called active. Inconclusive results, whose numbers are uncertain, are shown with a selection of clear calls. The call rests on the fitted dose curve; in most records, active means well fitted inhibition curve with a large enough effect; inconclusive means small, poorly fitted or top-dose-only effect, or another doubt; inactive means no such curve, though single readings can be large or run the other way. Potencies of inconclusive entries are left out as doubtful fits.

Experiment: Primary qHTS for delayed death inhibitors of the malarial parasite plastid, 48 hour incubation
Settings: P. falciparum luciferase growth in erythrocytes; series mostly up to 28.7 µM
In short: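 Parasite viability was followed by luminescence of a genomically integrated firefly luciferase. Cultures held 0.1% parasitemia at 2% hematocrit (final), incubated under 5% CO2 at 37 C.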
Potency means the concentration at half of the fitted maximal effect; tags describe the fitted curve by direction and shape.

| SMILES | Potency |
| --- | --- |
| COc1cc(C)c(CN2CCC(Oc3ccc(C(=O)N4CCCC4)cc3)CC2)cc1C | inconclusive [inhibitor, partial curve, poor fit] |
| O=C(Nc1ccc(F)cc1F)NC1CC1 | inactive |
| Clc1ccc(-c2nnc(-c3ccc(Br)cc3)c(N3CCSCC3)n2)cc1 | inconclusive [inhibitor, single point] |
| COC(=O)c1ccc(C(C(=O)NCc2ccccc2)N(Cc2cccs2)C(=O)c2cnccn2)cc1 (configuration not stated) | inconclusive [inhibitor, single point] |
| C#CCn1c(-c2cccs2)nc2ccccc21 | inconclusive [inhibitor, single point] |
| COc1ccc(CNCC(O)(c2ccccc2)c2ccc(F)cc2)cc1 (configuration not stated) | active: 5.22 µM |
| O=C(Nc1ccc(Oc2ccccc2)nc1)C1CCCCN1Cc1cccc(OCCO)c1 (configuration not stated) | inconclusive [inhibitor, partial curve, poor fit] |
| CCOC(=O)C1=C(C)NC(=O)CC1c1cc2c(cc1Br)OCO2 (configuration not stated) | inactive |
| CC(C)Sc1oc(-c2ccco2)nc1S(=O)(=O)c1ccccc1 | inconclusive [inhibitor, single point] |
| CN(C)c1ccc(/C=N/NC(=O)CN(c2ccccc2Cl)S(C)(=O)=O)cc1Br | inconclusive [inhibitor, single point] |
| COc1ccc2cc3c(N)nn(C(=O)C4CCC(C(C)(C)C)CC4)c3nc2c1 (configuration not stated) | inconclusive [inhibitor, single point] |
| Cc1c(C(=O)N/N=C/c2cccc(O)c2)nnn1-c1nonc1N | inconclusive [inhibitor, partial curve, poor fit] |
| COC(=O)c1cccc(-n2nnnc2SCC(=O)Nc2cc(C)on2)c1 | inactive |
| O=C(Nc1cccc(-c2csc(Nc3ccccc3)n2)c1)c1cc([N+](=O)[O-])cc(C(F)(F)F)c1 | inconclusive [inhibitor, full curve, poor fit] |
| O=c1[nH]c(-c2ccccn2)nc(C(F)(F)F)c1Br | active: 5.86 µM |
| N/C(=N\OC(=O)C(c1ccccc1)c1ccccc1)c1ccccn1 | active: 13.1 µM |
| CCCCCn1c(NC2CCCCC2)nc2c1c(=O)[nH]c(=O)n2C | inconclusive [inhibitor, single point] |
| O=C1Nc2c(ccc(Cl)c2Cl)C(=O)C1(F)c1ccccc1 (configuration not stated) | inconclusive [inhibitor, full curve, poor fit] |
| NC(=O)Cc1nc(-c2ccc([N+](=O)[O-])cc2)cs1 | inactive |
| O=P(Nc1cccc(Cl)c1)(Oc1ccccc1)Oc1ccccc1 | inconclusive [inhibitor, single point] |
| CCOC(=O)c1cc(-c2ccc3c(c2)OCCO3)nc2c1c(C)nn2CCC#N | active: 9.28 µM |
| COc1cc(CNc2nc3ccccc3[nH]2)cc(OC)c1OC | inactive |
| CCOc1ccc2nc(SCC(=O)N(CCOC)c3c(N)n(Cc4ccccc4)c(=O)[nH]c3=O)[nH]c2c1 | inconclusive [inhibitor, partial curve, poor fit] |

| SMILES | Potency |
| --- | --- |
| CC(Cc1ccccc1)NCC(=O)Nc1cc(N(C)C)nc2ccccc12 (configuration not stated) | inconclusive [inhibitor, single point] |
| CCN1CCCC1CNC(=O)C1CCN(C(=O)c2cc3sccc3n2Cc2ccc(F)cc2)CC1 (configuration not stated) | inconclusive [inhibitor, partial curve] |
| COC(=O)CCCC(=O)N1CCCC(C(=O)c2ccc(-c3ccccc3)cc2)C1 (configuration not stated) | inactive |
| CC(C)(C)c1cc(NCCCn2ccnc2)n2ncc(-c3ccccc3)c2n1 | inconclusive [inhibitor, full curve] |
| CCN(CC)CCNc1nc(-c2ccc(OC)cc2)c(-c2ccc(OC)cc2)s1 | inconclusive [inhibitor, single point] |
| COc1ccc(CNC(=O)C2CCCN(S(=O)(=O)N3CCC(C)CC3)C2)c(OC)c1 (configuration not stated) | inactive |
| CC(C)(C)NC(=O)CN(C(=O)CS(=O)CC(=O)Nc1ccc(F)cc1)c1ccc(Cl)cc1 (configuration not stated) | inconclusive [inhibitor, single point] |
| Cc1ccc(-c2cc(C(F)F)n3ncc(C(=O)N4CCN5CCCC5C4)c3n2)cc1 (configuration not stated) | active: 11.7 µM |
| O=C1CN(C(=O)COC(=O)/C=C/c2ccco2)c2ccccc2N1 | inconclusive [inhibitor, partial curve] |
| COc1cccc(-c2nn(-c3ccccc3)cc2/C=C\C(=O)c2cccs2)c1 | inconclusive [inhibitor, full curve] |
| CC(=O)Nc1ccc(S(=O)(=O)Nc2cccc(C(=O)NC(C)(C)C)c2)cc1 | inconclusive [inhibitor, partial curve] |
| Cc1ccc(C)c(NC(=O)CSc2ccc(S(=O)(=O)N3CCCC3)cn2)c1 | inconclusive [inhibitor, partial curve, poor fit] |
| CC(=O)Nc1ccc2nc(NC(=O)CCc3ccccc3)sc2c1 | inconclusive [inhibitor, full curve, poor fit] |
| Cc1nc(NC(=O)c2ccc(Cl)cc2)sc1-c1csc(Nc2cccc(F)c2)n1 | active: 13.1 µM |
| CC1(C)C2CCC1(C)C1(C2)NC(=O)c2ccccc2O1 (configuration not stated) | inactive |
| CCN(CC)S(=O)(=O)c1ccc2c(c1)N(CC(=O)N1CCCC1)C(=O)CO2 | inactive |
| COc1ccc(CCNc2ccc(N3C(=O)CC(C)C3=O)cc2[N+](=O)[O-])cc1 (configuration not stated) | inconclusive [inhibitor, partial curve] |
| COc1ccc(OC)c(CCNC(=O)C(C)n2nc(C)c3c(C)n(-c4ccc(C)cc4)nc3c2=O)c1 (configuration not stated) | inconclusive [inhibitor, single point] |
| CN(C(=O)COc1ccc(Cl)cc1Cl)c1nnc(C23CC4CC(CC(C4)C2)C3)s1 | inconclusive [inhibitor, partial curve, poor fit] |
| CCn1c(=O)[nH]c2cc(C(=O)Nc3cc(C)cc(C)c3)ccc2c1=O | active: 4.65 µM |
| CC1CCN(S(=O)(=O)c2ccc3c(c2)c(=O)c(C(=O)NCc2ccco2)cn3C)CC1 | inconclusive [inhibitor, single point] |
| CCn1c(CNc2ccc(F)cc2)nnc1SCC(=O)Nc1ccccc1OC | inconclusive [inhibitor, single point] |
| COc1cccc(CNc2ccc3c(c2)ncn3C)c1OC | inconclusive [inhibitor, partial curve] |

| SMILES | Potency |
| --- | --- |
| O=C(COc1ccc(S(=O)(=O)N2CCCC2)cc1Cl)Nc1ccc2c(c1)OCO2 | inactive |
| Cc1cccc(C)c1OCC(=O)Nc1cccc(S(=O)(=O)N2CCCC2)c1 | inconclusive [inhibitor, partial curve, poor fit] |
| COc1ccccc1CCN1CCCC(CN(C)Cc2ccc(OCCO)cc2)C1 (configuration not stated) | inconclusive [inhibitor, partial curve, poor fit] |
| Cc1cccc(N2N=C(C(=O)N3CC(=O)Nc4ccccc43)CCC2=O)c1 | inactive |
| NC(=O)c1cc2nc(-c3ccco3)cc(C(F)(F)F)n2n1 | inactive |
| COc1ccc(NC(=O)CCNS(=O)(=O)c2cc(Br)cnc2N)c(OC)c1 | inactive |
| COc1ccc(-c2csc3nc(-c4cccnc4)nc(Cl)c23)cc1OC | active: 11.7 µM |
| CCOC(=O)N1CCN(C(=O)c2cccc(S(=O)(=O)Nc3ccccc3Cl)c2)CC1 | inconclusive [inhibitor, single point] |
| Cc1c(OCC(=O)NCCCN2CCOCC2)ccc2c1oc(=O)c1ccccc12 | inconclusive [inhibitor, single point] |
| COc1cc(C2c3c(c(C)c(C)oc3=O)Oc3c(C)c(C)oc(=O)c32)ccc1OS(=O)(=O)c1ccc(C)cc1 | active: 5.86 µM |
| COc1ccc(S(=O)(=O)n2nc(OC(=O)c3c(-c4ccccc4Cl)noc3C)cc2N)cc1 | inactive |
| O=C(CN1CCN(CC(=O)Nc2ccccc2Cl)CC1)NCC1(N2CCCCC2)CCCCC1 | inconclusive [inhibitor, partial curve, poor fit] |
| CCN(CCNC(=O)C1CCCN(c2ncnc3c2nc2n3CCCCC2)C1)Cc1ccccc1 (configuration not stated) | inconclusive [inhibitor, single point] |
| Cn1c(=O)c2c(nc3n2CC(CO)O3)n(C)c1=O (configuration not stated) | inactive |
| O=C(CSc1nc(N2CCOCC2)nc(N2CCOCC2)n1)Nc1ccc([N+](=O)[O-])cc1 | inconclusive [inhibitor, partial curve, poor fit] |
| CCOC(=O)CSc1nc(N2CCOCC2)c2c(c1C#N)CC(C)(C)N(C)C2 | inconclusive [inhibitor, single point] |
| CCc1ccc(/C=C2\Oc3c(ccc(O)c3CN3CCN(CCO)CC3)C2=O)cc1 | inconclusive [inhibitor, single point] |
| C=CCOc1ccc(CN(C)Cc2nc3cc(C(F)(F)F)ccc3c(=O)[nH]2)cc1 | inconclusive [inhibitor, single point] |
| O=C(N/N=C/c1cc([N+](=O)[O-])cc([N+](=O)[O-])c1O)/C(=C\c1cccs1)NC(=O)c1ccccc1 | inactive |
| Nc1c2c3c(sc2nc(=O)n1N)CCCC3 | inactive |
| CCC(C)c1ccc(O)c(NC(=O)c2cncc(Br)c2)c1 (configuration not stated) | active: 1.04 µM |
